From US20140193437A1, “HYDROPHILIC SELF-IMMOLATIVE LINKERS AND CONJUGATES THEREOF” (BioAlliance C.V., priority 2012, published 2014) come the findings set out here.

In general, % inhibition refers to the change of the read-out against control, counted positive when it falls.

Series [1] deals with colorectal cancer cell line DLD-1. Briefly: In-vitro cytotoxicity by WST-1 assay, DLD-1. The format is cell-based. To be noted: DLD-1 (binding-positive), Table 6. The method, then: The colorectal cancer cell line DLD-1 (BCRC, Cat. No. 60132) was cultured in RPMI Medium 1640 supplemented with 10% FBS, 1 mM sodium pyruvate (GIBCO, Cat. No. 11360), and 100 U/mL penicillin/100 μg/mL streptomycin.
(§1) Cancer cells SNU-16, Panc 02.03B, COLO 205 and SW480 were seeded 1×10^4, 3×10^3, 2×10^4 and 1.2×10^4 cells/well, respectively, on 96-well microtiter plates. Cancer cells DLD-1 and PANC-1 were seeded 1×10^4 cells/well on 96-well microtiter plates. h5F1Ca.1/Tap18H ADC, h5F1Ca.1/Tap18Hr1 or naked antibody h5F1Ca.1 were added in triplicate at final concentration of 3 μg/mL and 1 μg/mL or final indicated concentrations and a final volume 200 μL/well. Cells were then incubated at 37° C. and 5% CO2, and cell viability was detected at 72 hours or 96 hours by cell proliferation reagent WST-1 (Roche (Nutley, N.J.), Cat. No. 11644807001) following manufacturer's instructions. In brief, at the end of incubation 100 μL of medium was withdrawn and 10 μL/well of WST-1 was added to the tested cell line. After optimal color development (when OD450 of untreated control ≧1.00), absorbance at 450 nm (OD450 value) was measured by spectrophotometer (Molecular Devices (Sunnyvale, Calif.), VERSAmax microplate reader). The mean of the triplicates was obtained and background (medium control) was subtracted. The resultant OD450 values were then used to calculate % inhibition according to the following formula: [OD450 solvent−OD450 sample]/[OD450 solvent]*100.
(§2) We further examined the in vitro cytotoxic activity of the c5D7/Tap18Hr1 in the binding-positive colorectal cancer cell line DLD-1, and binding-negative pancreatic cell line PANC-1. Consistent with data presented above, effective growth inhibition in DLD-1 cells was induced by c5D7/Tap18Hr1 but not by c5D7 antibody alone (Table 6).
A general note: Formazan colour is commonly taken as a measure of viable cells.

For series [2], the system named is pancreatic cancer cell line PANC-1. Kind of series: In-vitro cytotoxicity by WST-1 assay, PANC-1. To be noted: PANC-1 (binding-negative), Table 6. The format is cell-based. As to the method:
The pancreatic cancer cell line PANC-1 (BCRC, Cat. No. 60284) was cultured in Dulbecco's modified Eagle's medium (GIBCO, Cat. No. 11965) supplemented with 10% FBS and 100 U/mL penicillin/100 μg/mL streptomycin.
as §1, §2

Series [3] has as its system colorectal cancer DLD-1 tumor. Kind of series: ADC treatment in DLD-1 subcutaneous xenograft model. Format: in vivo, C.B-17 SCID mice. The following applies: DLD-1 xenograft. As to the method: The chimeric 5D7-54.17 antibody (c5D7) was used in preparing an antibody drug conjugate (ADC), c5D7/Tap18Hr1 (see above for the methods of making the ADC). The anti-tumor activity of c5D7/Tap18Hr1 was evaluated in vivo on DLD-1 transplanted SCID mice. Treatment was initiated at days 1 and 5 following tumor inoculation with vehicle or ADC at 3 mg/kg.

B1: c5D7/Tap18Hr1 (conjugate)
heavy: EVQLQQSGPEVVKPGASMKMSCKTSGYKFTGYYMDWVKQSLGASFEWIGRVIPSNGDTRYNQKFEGKATLTVDRSSSTAYMELNSLTSEDSAVYYCARKPLSGNAADYWGQGTSVTVST[letters of human IgG1 constant region omitted]
light: ETTVTQSPASLSVATGEKVTIRCITSTDIDDDMNWYQQKPGEPPKLLISDGNTLRPGVPSRFSSSGYGTDFVFTIENTLSEDITDYYCMQSDNMPFTFGSGTKLEIKRTVAAPSVFIFPPSDEQLKSGTASVVCLLNNFYPREAKVQWKVDNALQSGNSQESVTEQDSKDSTYSLSSTLTLSKADYEKHKVYACEVTHQGLSSPVTKSFNRGEC
As for B1, the “% inhibition” value in series [1] (0.1 μg/mL) was 35.4%; in series [1] (0.31 μg/mL), 62.0%; in series [2] (0.1 μg/mL), 2.9%; in series [2] (0.31 μg/mL) it was 1.4%. Also, the body weight result in series [3] (3 mg/kg at days 1 and 5, after treatment) is “remained unchanged”. Also, in series [3] (3 mg/kg at days 1 and 5, after treatment, either group), the “body weight on average” value is on record as 25 g. Also, in series [3] (3 mg/kg intravenously at days 1 and 5 (vehicle approached 500 mm^3 at day 14)), the tumor growth result is “completely suppressed tumor growth”.

B2: c5D7: chimeric 5D7-54.17 anti-transferrin receptor antibody, heavy chain SEQ ID NO:3, light chain SEQ ID NO:4 (antibody)
heavy: EVQLQQSGPEVVKPGASMKMSCKTSGYKFTGYYMDWVKQSLGASFEWIGRVIPSNGDTRYNQKFEGKATLTVDRSSSTAYMELNSLTSEDSAVYYCARKPLSGNAADYWGQGTSVTVST[letters of human IgG1 constant region omitted]
light: ETTVTQSPASLSVATGEKVTIRCITSTDIDDDMNWYQQKPGEPPKLLISDGNTLRPGVPSRFSSSGYGTDFVFTIENTLSEDITDYYCMQSDNMPFTFGSGTKLEIKRTVAAPSVFIFPPSDEQLKSGTASVVCLLNNFYPREAKVQWKVDNALQSGNSQESVTEQDSKDSTYSLSSTLTLSKADYEKHKVYACEVTHQGLSSPVTKSFNRGEC
For B2, the “% inhibition” value in series [1] (0.1 μg/mL) was 0.6%; in series [1] (0.31 μg/mL), −0.3%; in series [2] (0.1 μg/mL), 4.6%; in series [2] (0.31 μg/mL), 4.5%.
